# Test results: PubChem BioAssay AID881 (National Center for Advancing Translational Sciences (NCATS), 2007)
# Among all 110,000 compounds or so, about 610 (0.55%) were called active. The inconclusive results got no clear call from the source; some entries with a clear call stand among them for comparison. The call rests on the fitted dose curve; in most records, active means well fitted inhibition curve with a large enough effect; inconclusive means small, poorly fitted or top-dose-only effect; inactive means no such curve, though single readings can be large or run the other way. Potencies beside an inconclusive call are fits to weak or partial responses and may not hold up.
# Molecular target: Polyunsaturated fatty acid lipoxygenase ALOX15B (Homo sapiens) (UniProt O15296)
# Chain of UniProt O15296 (O15296 whole entry, looked up): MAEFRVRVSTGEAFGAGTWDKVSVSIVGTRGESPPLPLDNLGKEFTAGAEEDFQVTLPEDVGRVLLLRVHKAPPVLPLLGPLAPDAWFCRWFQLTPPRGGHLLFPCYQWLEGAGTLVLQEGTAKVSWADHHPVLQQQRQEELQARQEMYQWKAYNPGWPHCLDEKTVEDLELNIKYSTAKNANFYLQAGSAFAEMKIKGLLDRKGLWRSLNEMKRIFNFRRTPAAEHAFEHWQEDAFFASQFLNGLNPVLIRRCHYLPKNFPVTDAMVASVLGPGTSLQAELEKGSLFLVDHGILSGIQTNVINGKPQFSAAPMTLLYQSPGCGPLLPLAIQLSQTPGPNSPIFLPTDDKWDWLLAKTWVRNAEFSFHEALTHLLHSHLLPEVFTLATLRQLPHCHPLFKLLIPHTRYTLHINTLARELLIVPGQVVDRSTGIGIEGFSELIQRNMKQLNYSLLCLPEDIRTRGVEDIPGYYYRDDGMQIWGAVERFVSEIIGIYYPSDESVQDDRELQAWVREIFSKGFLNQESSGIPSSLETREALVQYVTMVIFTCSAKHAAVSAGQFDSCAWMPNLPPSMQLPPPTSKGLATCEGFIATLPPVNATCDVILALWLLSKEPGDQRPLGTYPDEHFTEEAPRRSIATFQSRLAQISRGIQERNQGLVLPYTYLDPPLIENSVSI
# Assay: qHTS Assay for Inhibitors of 15-hLO-2 (15-human lipoxygenase 2); further: nearly all actives have a fitted effect of over 60% in size
# Conditions: purified 15hLO-2, xylenol orange hydroperoxide absorbance; activity change, negative = inhibition: at 57.1 µM (top of the series) unless noted
# Procedure, shortened: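 Enzyme 50 nM, AA 45 uM, 25 mM Hepes pH 7.5 + 0.01% Triton X-100; cpd preinc 15 min RT, rxn 90 min RT; stop/detect with 200 uM XO + 300 uM Fe(II) in 50 mM H2SO4, 30 min; A573/A405.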
# On the % scale 0 is the no-effect control and ±100 the full control effect; potency means the concentration at half of the fitted maximal effect; tags describe the fitted curve by direction and shape.
Compound,Potency,"activity change, negative = inhibition"
C1=C(c2ccccc2)CCN(c2ncnc3nc[nH]c23)C1,inactive,–
Cc1ccc(S(=O)(=O)Nn2c(C)ccc2C)cc1,"inconclusive: 10 µM [inhibitor, partial curve]",–
O=C(c1cccc(F)c1)N1CCC[C@@]2(CCN(c3ccccc3)C2)C1,"inconclusive: 12.6 µM [inhibitor, partial curve]",–
O=C1NC2(CCCCC2)NN1c1ccccc1,"inconclusive: 15.8 µM [inhibitor, partial curve]",–
S=c1nc(C2CCCCC2)[nH][nH]1,"inconclusive: 31.6 µM [inhibitor, single point]",–
Cn1cccc1C(=O)N1CCC2(CC1)CN(Cc1cc(C(F)(F)F)cc(C(F)(F)F)c1)C2,inactive,–
O=C(Nc1ccc(Nc2ccccc2)cc1)C1CC1,inactive,–
COc1ccc(Br)cc1/C=N/NC(=O)CNC(=O)/C=C/c1ccccc1,"inconclusive: 25.1 µM [inhibitor, single point]",–
O[C@H]([C@H](O)[C@@H](O)c1nc2ccccc2[nH]1)[C@@H](O)c1nc2ccccc2[nH]1,–,inactive: 5.18% [at 11.4 µM]
COc1ccc(OCC(=O)NC(=S)Nc2ccc(N3CCOCC3)c(Cl)c2)cc1,"inconclusive: 15.8 µM [inhibitor, partial curve]",–
CCC(C)NC(=O)CSC1=Nc2ccccc2C2=NC(c3ccccc3)C(=O)N12 (configuration not stated),inactive,–
CCOc1ccccc1NC(=S)N1C2CCC1CC(NC(=O)NC13CC4CC(CC(C4)C1)C3)C2 (configuration not stated),"inconclusive: 25.1 µM [inhibitor, single point]",–
CCOC(=O)c1c(-c2ccc(C)o2)csc1NC(=O)CSc1nncs1,"inconclusive: 25.1 µM [inhibitor, partial curve]",–
Nn1c(-c2cccc(Br)c2)n[nH]c1=S,"inconclusive: 39.8 µM [inhibitor, single point]",–
N#CC1=C(N)Oc2n[nH]c(-c3cccs3)c2C1C1CCCCC1 (configuration not stated),"inconclusive: 20 µM [inhibitor, partial curve]",–
CN=c1scc(C)n1/N=C/c1ccc(O)c(O)c1O,"inconclusive: 12.6 µM [inhibitor, partial curve]",–
CCc1ccccc1-n1c(-c2ccncc2)n[nH]c1=S,"inconclusive: 39.8 µM [inhibitor, single point]",–
N#CC(c1nc2ccccc2nc1N1CCCC1)S(=O)(=O)c1ccccc1 (configuration not stated),"inconclusive: 15.8 µM [inhibitor, partial curve]",–
CCOC(=O)/C(=N\Nc1cccc(C(F)(F)F)c1)N(CCOC)CCOC,"inconclusive: 3.16 µM [inhibitor, full curve]",–
CCCSc1nc(C)c(-c2csc(C(C#N)=C3CCCC3)n2)cc1C#N,active: 10 µM,–
O=c1[nH]c(Nc2ccccc2)cc2ccccc12,"inconclusive: 10 µM [inhibitor, partial curve]",–

Compound,Potency,"activity change, negative = inhibition"
Cc1ccc2nc3c(cc(C(N)=S)c(=N)n3CCCOC(C)C)c(=O)n2c1,"inconclusive: 39.8 µM [inhibitor, single point]",–
COc1ccc(OC)c(C2C3CN(C(C)C)CC=C3C(C#N)=C(N)C2(C#N)C#N)c1 (configuration not stated),inactive,–
O=C(NCC1CCCO1)c1sc(=S)n2c1[nH]c(=O)c1ccc(C(=O)N3CCCCC3)cc12 (configuration not stated),"inconclusive: 15.8 µM [inhibitor, partial curve]",–
COc1cc(C(=O)NC(=S)Nc2cccc(-c3cc4ccccc4oc3=O)c2)cc(OC)c1OC,"inconclusive: 10 µM [inhibitor, partial curve]",–
COCCNC(=O)c1ccc2c(c1)nc(C)n2-c1cc(OC)c(OC)c(OC)c1,"inconclusive: 0.158 µM [inhibitor, full curve]",–
Cc1ccc(C)c(S(=O)(=O)Nc2ccccc2C(=O)Nc2cc(C)on2)c1,"inconclusive: 25.1 µM [inhibitor, single point]",–
Cc1ccsc1C1C=C(c2cccc(Br)c2)Nc2ncnn21 (configuration not stated),inactive,–
O=C(NO)c1cc(OCC(F)(F)F)ccc1OCC(F)(F)F,"inconclusive: 15.8 µM [inhibitor, partial curve]",–
O=C1c2cc([N+](=O)[O-])ccc2-c2ccc3c4ccc5c6c(ccc(c7ccc1c2c73)c64)C(=O)c1cc([N+](=O)[O-])ccc1-5,"inconclusive: 3.98 µM [inhibitor, single point]",–
CCOC(=O)c1cn(-c2nc(-c3ccc(Cl)c(Cl)c3)cs2)c2c(F)c(N3CCOCC3)c(F)cc2c1=O,"inconclusive: 12.6 µM [inhibitor, partial curve, poor fit]",–
Cc1cc(/C=C2/NC(=O)NC2=O)c(C)n1-c1sc2c(c1C#N)CCCC2,"inconclusive: 15.8 µM [inhibitor, partial curve]",–
Cc1c(NC(=O)COC(=O)c2cc3c4ccccc4n(C)c3s2)c(=O)n(-c2ccccc2)n1C,"inconclusive: 12.6 µM [inhibitor, partial curve]",–
COC(=O)[C@@]1(Cc2ccccc2)[C@H]2c3cc(C(=O)N4CCCC4)n(Cc4ccc(O)c(OC)c4)c3C[C@H]2CN1C(=O)c1ccccc1,"inconclusive: 25.1 µM [inhibitor, single point]",–
Cc1[nH]n(-c2ccccc2)c(=O)c1-c1cccc(Cl)c1,"inconclusive: 2 µM [inhibitor, full curve]",–
CCOc1ccccc1-n1nnnc1SCc1nc2ccccc2s1,"inconclusive: 12.6 µM [inhibitor, partial curve]",–
O=C(c1cccc(F)c1)N1CCN(C(=O)c2nn3cccnc3c2Cl)CC1,inactive,–
NS(=O)(=O)c1nc(S(=O)(=O)O)c2[nH]cnc2n1,–,inactive: 1.83% [at 11.4 µM]
CCOc1ccc(OCC(=O)c2c(O)c3ccccc3oc2=O)cc1,"inconclusive: 7.94 µM [inhibitor, partial curve]",–
Cc1ccc(NC(=S)NCc2ccc3c(c2)OCO3)c(C)c1,"inconclusive: 25.1 µM [inhibitor, single point]",–
CC(=O)Nc1nc(NC(C)=O)c2[nH]c(CO)nc2n1,–,inactive: -4.05% [at 11.4 µM]
CCOc1ccc(NC(=S)NC(=O)/C=C/c2ccc(OC)c(OC)c2)c([N+](=O)[O-])c1,"inconclusive: 25.1 µM [inhibitor, single point]",–
